The source gives no read counts; variants with many changes may rest on few reads.
B1: CPEB3 Ribozyme (parent)
chain: UAACAGGGGGCCACAGCAGAAGCGUUCACGUCGCAGCCCCUGUCAGAUUCUGGUGAAUCUGCGAAUUCUGCUGUAUAUCUC

Variants of: B1
Experiment: self-cleavage, relative activity (ratio to wild type); higher = more cleavage; in vitro, sequencing
Outline: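 CPEB3 self-cleaving ribozyme mutant libraries were made by rounds of error-prone PCR, barcoded, and transcribed in vitro with T7 RNA polymerase for 5 hours at 37°C. Cleavage occurred during transcription and a 15 min DNase I step before EDTA stop. RNAs were reverse transcribed with template switching and Illumina-sequenced, with DNA sequencing mapping barcodes to variants. Relative activity is the variant's cleaved/total read fraction divided by wild type's (minimum 5 reads), averaged across three batches.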

Variant	self-cleavage
UAACAGGGGGCCACAGCAGAAGCGUUCACGUCGCAGCCCCUGUCAGAUUCAGGUGGAUCUGCGUACUCUGCUGUAUAUCUC	0.23
UAACAGGGGGCCACAGCAGAAGCGUUCACGUCGCAGCCCCUGUCAGAUCCCGGUGAAUCUGCGAAUUCUACUGUAUAUCUC	0.16
UAACAGGGGGCCACAGCAGAAGCGUUCACGUCGCAGCCCCUGUCAGAUCCUAGUGCAUCUGCGAAUUCUGCUGUAUACCUC	0.55
UAACAGGGGGCCACAGCAGAAGCGUUCACGUCGCAGCCCCUGUCAGAUCCUGGUGAACCUGCGAAACCUGCUGUAUAUCUC	0.11
UAACAGGGGGCCACAGCAGAAGCGUUCACGUCGCAGCCCCUGUCAGAUUAUGGUGAGUCUGCGAAUUCUGCUGUAUAUCCC	0.97
UAACAGGGGGCCACAGCAGAAGCGUUCACGUCGCAGCCCCUGUCAGAUCCUGGUGAACCUGCGAAUUCUGCUGAAUAUCUC	0.11
UAACAGGGGGCCACAGCAGAAGCGUUCACGUCGCAGCCCCUGUCAGAUCCAGGUGAAUCUGCGAGUUCUGCCGUAUAUCUC	0.22
UAACAGGGGGCCACAGCAGAAGCGUUCACGUCGCAGCCCCUGUCAGAUUCAGGUGAGUCUGCGUAUUCUGCGGUAUAUCAC	0.2
UAACAGGGGGCCACAGCAGAAGCGUUCACGUCGCAGCCCCUGUCAGAUCCUGGUGAAUCUGCGAAUUCUGCCGAAUAUCUC	0.64
UAACAGGGGGCCACAGCAGAAGCGUUCACGUCGCAGCCCCUGUCAGAUCCUGGUGAAUCUGCAAAUUCUGCUGUAUACCUC	0.17
UAACAGGGGGCCACAGCAGAAGCGUUCACGUCGCAGCCCCUGUCAGAUCCUGGUGAUUCUGCGAACUCUGCUGGAUAUCUC	0.06
UAACAGGGGGCCACAGCAGAAGCGUUCACGUCGCAGCCCCUGUCAGAUCCUGCUGAAUCUGCGAAUUCUGCUGUAAGUCUC	0.38
UAACAGGGGGCCACAGCAGAAGCGUUCACGUCGCAGCCCCUGUCAGAUCCUGAUGUAUCUGCGAAUUCCGCUGUAUAUCUC	0.1
UAACAGGGGGCCACAGCAGAAGCGUUCACGUCGCAGCCCCUGUCAGAUUCAGGUGAGUCUACGAAUUCUGCUGUAUACCUC	0.38
UAACAGGGGGCCACAGCAGAAGCGUUCACGUCGCAGCCCCUGUCAGAUUUUGGUGAAUCCGCGAAUUCUGCUGUACAUCUC	0.28
UAACAGGGGGCCACAGCAGAAGCGUUCACGUCGCAGCCCCUGUCAGAUUCAGGUGACUCUGCGAAUUCAGCUGUACAUCUC	0.34
UAACAGGGGGCCACAGCAGAAGCGUUCACGUCGCAGCCCCUGUCAGAUCCUGGUGAGUCUGCGAAUUCUGCCGUAUACCUC	0.27
UAACAGGGGGCCACAGCAGAAGCGUUCACGUCGCAGCCCCUGUCAGAUCCUGGUGAAUCUGCGAAUUCCGCUGUAUAACUC	0.35
UAACAGGGGGCCACAGCAGAAGCGUUCACGUCGCAGCCCCUGUCAGAUUAUGGCGAAUCUGCGAAUUCUGCAGUAUAUCUC	0.87
UAACAGGGGGCCACAGCAGAAGCGUUCACGUCGCAGCCCCUGUCAGAUCCUGGUGAAUCUGCGAAUUCCGCUGUAUUUCUC	0.37
UAACAGGGGGCCACAGCAGAAGCGUUCACGUCGCAGCCCCUGUCAGAUUCAGGUGGAUCUGCGAAUUCUGCGGUAUAUCUC	0.44
UAACAGGGGGCCACAGCAGAAGCGUUCACGUCGCAGCCCCUGUCAGAUUCAGGUGUAUCUGCGAGUUCUGCAGUAUAGCUC	0.73
UAACAGGGGGCCACAGCAGAAGCGUUCACGUCGCAGCCCCUGUCAGAUCCUGGUGAAUCUGCGAACUCGGCUGUAUAUCUC	0.2

Variant	self-cleavage
UAACAGGGGGCCACAGCAGAAGCGUUCACGUCGCAGCCCCUGUCAGAUCCUGGUGAAUCUGCGAAUUCUGCAGUAUAUCCC	0.49
UAACAGGGGGCCACAGCAGAAGCGUUCACGUCGCAGCCCCUGUCAGAUCCUGGUGAAACUGCGAAUUCUGCUGUUUAUCUC	0.13
UAACAGGGGGCCACAGCAGAAGCGUUCACGUCGCAGCCCCUGUCAGAUCCUGGUGAAUCCGCGAAUUCGGCCGUAUAUCCC	0.13
UAACAGGGGGCCACAGCAGAAGCGUUCACGUCGCAGCCCCUGUCAGAUCCCGGUGAAUCUGCGAAUUCUGCUGUACAUCUC	0.38
UAACAGGGGGCCACAGCAGAAGCGUUCACGUCGCAGCCCCUGUCAGAUGCAGGCGAUUCUGCGAAUUCUGCCGUAUAUCUC	0.17
UAACAGGGGGCCACAGCAGAAGCGUUCACGUCGCAGCCCCUGUCAGAUCCUGGCGAAUCUGCGAAUUAUGCCGUAUAUCUC	0.1
UAACAGGGGGCCACAGCAGAAGCGUUCACGUCGCAGCCCCUGUCAGAUCCUGGUGAAGCGGCGAAUUCUGCAGUAUAUCUC	0.1
UAACAGGGGGCCACAGCAGAAGCGUUCACGUCGCAGCCCCUGUCAGAUCCUGGUGAGUCUGCGAACUCUGCUGUAUAUCUC	0.11
UAACAGGGGGCCACAGCAGAAGCGUUCACGUCGCAGCCCCUGUCAGAUCCUGGUGAAUCUGCGAAUACCGCUGUAUAUCUC	0.18
UAACAGGGGGCCACAGCAGAAGCGUUCACGUCGCAGCCCCUGUCAGAUUAUGGCGAAUCAGCGAAUUUUGCUGUAUAUCUC	0.15
UAACAGGGGGCCACAGCAGAAGCGUUCACGUCGCAGCCCCUGUCAGAUCCGGGAGAAUCUGCGUAUUCUGCCGUAUAUCUC	0.11
UAACAGGGGGCCACAGCAGAAGCGUUCACGUCGCAGCCCCUGUCAGAUUAUGGUGAAUCCGCGAAUUCAGCUGUAUAUCUC	0.15
UAACAGGGGGCCACAGCAGAAGCGUUCACGUCGCAGCCCCUGUCAGAUCCCGGUGAAUCUGCGAAUCCUGCCGUAUAUCUC	0.41
UAACAGGGGGCCACAGCAGAAGCGUUCACGUCGCAGCCCCUGUCAGAUCCUGGUGAAUCUGCGAAUCCUGUUGUAUAUCUC	0.11
UAACAGGGGGCCACAGCAGAAGCGUUCACGUCGCAGCCCCUGUCAGAUUCAGGUGAGGCUGCGAAUUCUGCUGUAUAUCUC	0.1
UAACAGGGGGCCACAGCAGAAGCGUUCACGUCGCAGCCCCUGUCAGAUUCAGGUGGAUCUGCGGAUUCUGCUGUAUAUCUC	0.61
UAACAGGGGGCCACAGCAGAAGCGUUCACGUCGCAGCCCCUGUCAGAUCCAGGUGAAUGUGCGAAUUCUGCUGUAUAUCUC	0.17
UAACAGGGGGCCACAGCAGAAGCGUUCACGUCGCAGCCCCUGUCAGAUCCAGGUGAAUAUGCGAAUUCUGCUGUAUAUCUC	0.21
UAACAGGGGGCCACAGCAGAAGCGUUCACGUCGCAGCCCCUGUCAGAUCCCGGUGAAUCUGUGAAUUCUACUGUAUAUCUC	0.17
UAACAGGGGGCCACAGCAGAAGCGUUCACGUCGCAGCCCCUGUCAGAUCCUGGUGAAUCCGUGGGUUCAGCCGUAUAUCUC	0.08
UAACAGGGGGCCACAGCAGAAGCGUUCACGUCGCAGCCCCUGUCAGAUCCUUGUGAAUCUGCGAAUUCUGCUGUAUAUCAC	0.83
UAACAGGGGGCCACAGCAGAAGCGUUCACGUCGCAGCCCCUGUCAGAUCCAGGUGAAUCUGCGAAUUCUGCAGUUUUUCUC	0.4
UAACAGGGGGCCACAGCAGAAGCGUUCACGUCGCAGCCCCUGUCAGAUUAUGGUGGAUCUGCGAAUUCAGCUGUAUAUCUC	0.27

Variant	self-cleavage
UAACAGGGGGCCACAGCAGAAGCGUUCACGUCGCAGCCCCUGUCAGAUCCUGGUGAAUCUGCGAAUUCAGCCGUAUAUCUC	0.39
UAACAGGGGGCCACAGCAGAAGCGUUCACGUCGCAGCCCCUGUCAGAUCCUGAUGAGUCUGCGAAUUCCGCUGUAUAUCUC	0.13
UAACAGGGGGCCACAGCAGAAGCGUUCACGUCGCAGCCCCUGUCAGAUCCUGGCGAAUCUGCGAACUCUGCUGUAUAUCAC	0.17
UAACAGGGGGCCACAGCAGAAGCGUUCACGUCGCAGCCCCUGUCAGAUUAUGGUGAGUCUGCGAAUUCUGCCGUAUAUCUC	0.53
UAACAGGGGGCCACAGCAGAAGCGUUCACGUCGCAGCCCCUGUCAGAUCCUGGUGAAUCUGCGAGUUCUGCUGUAGAUCUC	0.12
UAACAGGGGGCCACAGCAGAAGCGUUCACGUCGCAGCCCCUGUCAGAUCCUGGUGAGUCUGCGAAUUCUGCCGUAUAUCUC	0.37
UAACAGGGGGCCACAGCAGAAGCGUUCACGUCGCAGCCCCUGUCAGAUCCUGGCGAAUCUGCGUAUUCUGCUGUAUAUCUC	0.16
UAACAGGGGGCCACAGCAGAAGCGUUCACGUCGCAGCCCCUGUCAGAUCCUGGAGAAUCUGCAAAUUCUGCUGUAUACCUC	0.37
UAACAGGGGGCCACAGCAGAAGCGUUCACGUCGCAGCCCCUGUCAGAUCCUGGAGAAUCUGUGAAUUCUGCUGUAUGUCUC	0.12
UAACAGGGGGCCACAGCAGAAGCGUUCACGUCGCAGCCCCUGUCAGAUUUUGGUGAAUCUGCGGAUUCUGCUGUAUAUCUU	0.73
UAACAGGGGGCCACAGCAGAAGCGUUCACGUCGCAGCCCCUGUCAGAUCCUGGUGAAUCUGCGGAUCCUGCUGUAUAUCUC	0.13
UAACAGGGGGCCACAGCAGAAGCGUUCACGUCGCAGCCCCUGUCAGAUCCUGGUGAACCUGCGAGUUCUGCUGUAUAUCUC	0.04
UAACAGGGGGCCACAGCAGAAGCGUUCACGUCGCAGCCCCUGUCAGAUCCUGGUGAAACUGCGAAUCCUGCUGUAUAUCUC	0.11
UAACAGGGGGCCACAGCAGAAGCGUUCACGUCGCAGCCCCUGUCAGAUUUUGGUGAAUCCGCGUAUUCUGCUGUAUAUCUC	0.14
UAACAGGGGGCCACAGCAGAAGCGUUCACGUCGCAGCCCCUGUCAGAUCCAGGUGAAUCUGCGAAUUCUGCUGUCUAUCUC	0.72
UAACAGGGGGCCACAGCAGAAGCGUUCACGUCGCAGCCCCUGUCAGAUUUUGGUGAAUCUGCGGAUCCUGCUGUAUAUCCC	0.22
UAACAGGGGGCCACAGCAGAAGCGUUCACGUCGCAGCCCCUGUCAGAUCCUGGUGAAUCUGCGGACUCUGCCGUAUAUCUC	0.13
UAACAGGGGGCCACAGCAGAAGCGUUCACGUCGCAGCCCCUGUCAGAUCCUGGCGAAUCUGCGAAUUCUGCUGUAUAUCCC	0.7
UAACAGGGGGCCACAGCAGAAGCGUUCACGUCGCAGCCCCUGUCAGAUCCUGGUGAAUCUGCGAAUUCUGCUGUAUAAUUC	0.25
UAACAGGGGGCCACAGCAGAAGCGUUCACGUCGCAGCCCCUGUCAGAUCCUGGUGAAUCAGCGAAUUUUGCUGUAUAUCUC	0.08
UAACAGGGGGCCACAGCAGAAGCGUUCACGUCGCAGCCCCUGUCAGAUCCUGGUGAAUCCGCGAAUUCUGCUGUAUACCUC	0.28
UAACAGGGGGCCACAGCAGAAGCGUUCACGUCGCAGCCCCUGUCAGAUCCUGGUGAAUCUGCGAAUUCUACUGCAUAUCUC	0.19

Reference: the RNAGym collection of RNA variant scans (doi:10.1093/nar/gkz1192)
